Results: the RNAGym collection of RNA variant scans (doi:10.7554/elife.90254)
The source gives no read counts; variants with many changes may rest on few reads.

B1: OR4K15 (parent)
chain: GUUAACGGUCAUAGGCCAUGGAAACUAGGAGCACCAUUUCGCUGCCAGUGAAGAAAUGAACAAAGAAAAUCUGGGCCAGGCAGGCAUCAAAAGAAAUAGUCUUGCGCUCAACCAGAAAGUCUGUAAUCAUUUUAAGGGUA

Variants of: B1
Assay: self-cleavage, relative activity (ratio to wild type); higher = more cleavage; in vitro, sequencing; the parent is a self-cleaving ribozyme

Row | Variant | self-cleavage
1 | GUUAACGCUCAUAGGCCAUGGAAACUAGGGGCACCAUUUCGCUGCCAGUGAGGAAAUGAACAAAGAAAAUCUGGGCCAGGCAGGCAUCAGAGGAAAUAGUCUUGCGCUCAACCAGAAAGUCCGUAAUCAUUUUAAGGGUA | 0.7
2 | GUUAACGGACAUAGGCCAUGGCAACUCGGAGCACCAUUUCGCUGCCAGUGAAGAAAUGAACGAAGAAAAUCUGGGCCAGGCAGGCAUCAAAAGAAAUAGUCUUGCGCUCAACCAGAAAGUCUGUAAUCAUUUUAAGGGUA | 0.96
3 | GUUAACGGACAUAGGCCAUGGGAACUAGGAGCACCAUUUCGCUGCCAGUGAAGAAAUGAACAAAGAAGAUCUGGGCCAGGCAGGCAUCAAAAGAAAUAGUCUUGCGCUCAACCAGAAAGUCUGUAAUCAUUUUAAGGGUA | 0.85
4 | GUUAACGGACAUAGGCCUUGGAAACUAGGAGCACCAUUUCGCUGCCAGUGAAGAAAUGAACAAAGAAAAACUGGGCCAGGCAGGCAUCAAAAGAAAUAGUCUUGCGCUCAACCAGGGAGUCUGUAAUCAUUUUAAGGGUA | 0.05
5 | GUUAACGAUCAUAGGCCAUGGAAACUAGGAGCACCAUUUCGCUGCCAGUGAGGAAAUGAACAAAGAAAAUCUGGGCCAGGCAGGCAUCAAAAGAAAUAGUCUUGCGCUCAACCAGAAAGUCUGUAAUCAUUAUAAGGGUA | 0.83
6 | GUUAACGAUCAUAGGCCAUGGAAACUAGGAGCACCAUUUCGCAGCCAGUGAAGGAAUGAACAAGGAAAAUCUGGGCCAGACAGGCAUCAAAAGAAAUAGUCUUGCGCUCAACCAGAAAGUCUGUAAUCAUUUUAGGGGUA | 0.4
7 | GUUAACGAUCAUAGGCCAAGGAAACUAGGAGCACCAUUUCGCUGCCAGUGAAGAAAUGAACAAAGAAAAUCUGGGCCAGGCAGGCAACAAAAGAAAUAGUCUUGCGCUCAACCAGAAAGUCUGUAAUCAUUUUAAGGGUA | 2.97
8 | GUUAACGGACAUAGGCCGUGGAAACUAGGAGCACCAUUUCGCUGCCAGUGAAGAAAUGAACAAAGAAAAUCUGGGCCAGGCAGGCAUCAAAAGAAAUAGCCUUGCGCCCAACCAGAAAGUCUGUAAUCAUUUUAAGGGCA | 0.01
9 | GUUAACGAUCAUAGGCCAUGGAAACUAGGAGCACCAUUUCGCUGCCAGUGAAGAAAUGGACAAAGAAAAUCUGGGCCAGGCAGGCAUCAAAAGAAAUAGUCUUGCGCUCAACCGGAAAGUCUGUAAUCAUUUUAAGGGUA | 0.18
10 | GUUAACGAUCAUAGGCCAUGGAAACUAGGAGCACCAUUUCGCUGCCAGUGAGGAAAUGAACAAAGAAAAUCUGGGCCAGGCAGGCAUCAAAAGAAAUAGUCUUGCGCUCAACCAGAAAGCCUGUAAUCACUUUAAGGGUA | 0.73
11 | GUUAACGAUCAUAGGCCAUGGAAACUAGGAGCACCAUUUCGCUGCCAGUGAAGAAAUGAACAAGGAAAAUCUGGGCCGGGCAGGCAUCAAAAGAAAUAGUCUUGCGCUCAACCAGAAAGUCUGUAAUCACUCUAAGGGUA | 0.34
12 | GUUAACGAUCAUAGGCCAUGGAAACUAGGAGCACCAUUUCGCUGCCAGUGAAGAAAUGAACAAGGAAAAUCUGGGCCAAGCAGGCAUCAAAAGAAAUAGUCUUGCGCUCAACCAGGAAGUCUGUAAUCAUUUUAAGGGUA | 0.03
13 | GUUAACGAUCAUAGGCCAUGGAAACUAGGAGCACCAUUUCGCUGCCAGUGAAGAAAUGAACAAAGAAAAUCUGGGCCAGGCAGGCAUCAGAAGAAGUAGUCUUGCGCUCAACCAGAAAGUCUGUAAUCGUUUUAAGGGUA | 0.59
14 | GUUAACGAUCAAGGGCCAUGGAAACUAGGAGCACCAUUUCGCUGCCAGUGAAGAAAUGAACAAAGAAAAUCUGGGCCAGGCAGGCAUCAAAAGAAACAGUCUUGCGCUCAACCAGAAAGUCUGUAAUCAUUUUAAGGGUA | 1.61
15 | GUUAACGGACAUAGGCCUUGGAAACUAGGAGCGCCAUUUCGCUGCCAGUGAAGAAAGGAACAAAGAAAAUCUGGGCCAGGCAAGCAUCGAGAGAAAUAGUCUUGCGCUCAACCAGAAAGUCCGUAAUCAUUUUAAGGGUA | 0.75
16 | GUUAACGGACAUAGGCCAUGGGAACUAGGAGCACCAUUUCGCUGCCAGUGAAGAAAAGAACAAAGAAAAUCUGGGCCAGGCAGGCAUCAAGAGAAAUAGUCUUGCGCUCAACCAGAAAGUUUGUAAUCAUUUUAAGGGUA | 1.45
17 | GUUAACGAUCAUAGGCCAUGGAAACUCGGAGCACCAUUUCGCUGCCAGUGAAGAAAUGAACAAAGAGAAUCUGGGCCAGGCAGGCAUCAAAAGAAAUAGUCUUGCGCUCAACCAGAAAGUCUGUAAUCAUUUUAAGGGUA | 1.2
18 | GUUAACGCUCAUAGGCCAUGGAAACUAGGAGCACCAUUUCGCUGCCAGUGAAGAAAUGAACAAAGAAAAUCUGGGCCAGGCGGGCAUCAAAAGAAAUAGUCCUGCGCCCAACCAGAAAGUCUGUAAUCAUUUUAAGGGUA | 0.1
19 | GUUAACGGACAUAGGCCAUGGAGGCUAGGAGCACCAUUUCGCUGCCGGUGAAGAAAUGAACAAAGAAAAUCUGGGCCAGGCUGGCAUCAAAAGAAAUAGUCUUGCGCUCAACCAGAAAGUCUGUAAUCAUUUUAAGGGUA | 0.32
20 | GUUAACGCUCAUAGGCCAUGGAAACUAGGAGCACCAUUUCGCCGCCAGUGAAGAAAUGAACAAAGAAAAUGUGGGCCAGGCAGGCAUCAAGAGAAAUAGUCUUGCGCUCAACCAGAAAGUCUGUAAUCAUUUUAAGGGUA | 0.59
21 | GUUAACGAUCAUAGGCCAUGGAAACUGGGUGCACCAUUUCGCUGCCAGUGAAGAAAUGAACAAAGAAAAUCUGGGCCAGGCAGGCAUCUAAAGAAAUAGUCUUGCGCUCAACCAGAAAGUCUGUAAUCAUUUUAAGGGUA | 1.18

Row | Variant | self-cleavage
22 | GUUAACGAUCAUAGGCCAUGGAGACUAGGAGCACCAUUUCGCUGCCAGUGAAGAAAUGAACAAAGAGAAUCUGGGCCAGGCAGGCAUCAAAAGAAAUAGUCUUGCGCUCAACCAGAAAGUCUGCAAUCAUUUUAAGGGUA | 1.08
23 | GUUAACGAUCAUAGGCCAUGGAAACUAGGAGCACCAUUACGCUGCCAGUGAAGAAAUGAACAAAGAGAAUCUGGGCCAGGCAGGCAUCAAAAGAAAUAGUCUUGCGCUCAACCAGAAAGUCUGUAAUCAUUUUAAGGGUA | 1.26
24 | GUUAACGAUCAUAGGCCAUGGAAGCUAGGAGCACCAUUUCGCUGCCAGUGAAGAAAUGAACAAGGAAAAUCUGGGCCAGGCAGGCAUCAAAAGAAAUAGUCUUGCGCUCAACCAGAAAGUCUGUAGUCAUUUUAAGGGUA | 1.05
25 | GUUAACGAUCAUAGGCCAUGGAAAUUAGGAGCACCAUUUCGCUGCCAGUGAAGAAGUGAACAAAGAAAAUCUGGGCCAGGCAGGCAUCAAAAGAAGUAGUCUUGCGCUCAACCAGAAAGUCUGUAAUCAUUUUAAGGGUA | 2.22
26 | GUUAACGUUCUUAGGCCAUGGAGACUAGGAGCACCAUUUCGCUGCCAGUGAAGAAAUGAACAAAGAAAAUCUGGGCCAGGCAGGCAUCAAAAGAAAUAGUCUUGCGCUCAACCAUAAAGUCUGUUAUCAUCUUAAGGGUA | 0.08
27 | GUUAACGCUCAUAGGCCAUGGAAACUAGGAGCACCAUUUCGCUGCCGGUGAAGAAAUGAACAAAGAAAAUCUGGGCCAGGCAGGCAUCAAAAGAAAUAGUCCUGCGCUCAACCAGAAAGUCUGUAAUCAUUUUAAGGGUA | 2.36
28 | GUUAACGGACAUAGGCCAUGGGAACUAGGAGCACCAUUUCGCUGCCAGUGAAGAAAUGAACAAAGAGAAUCUGGGCCAGGCAGGCAUCAAAAGAAAUAGUCUUGCGCUCAACCAGAAAGUCUGUAAUCAUUUUAUGGGCA | 1.73
29 | GUUAACGUUCAUAGGCCAUGGAAACUAGGAGCACCAUUUCGCUGCCAGCGAAGAAAUGAACAAAGAAAAUCUGGGCCAGGCAGGCAUCAAAAGAAAUAGUCUUGCGCUCAACCAGAAGGUCUGUAAUCAUUUUAAGGGUA | 1.47
30 | GUUAACGAUCAUAGGCCAUGGAAACUAGGAGCACCAUUUCGCUGCCAGUGAAGAAAUGAACGAAGAAAAUCUGGGCCAGGCAGGCAUCAAAAGAAAUAGUCUUGCGCUCAACCAGGAAGUCUGUAAUCAUUUUAAGGGUA | 0.91
31 | GUUAACGUUCAUAGGCCAUGGAAACUAGGAGCACCAUAACGCUGCCAGUGAAGAAAUGAACAAAGAAAAUCUGGGCCAGGCAGGCAUCAAAAGAAAUAGUCUUGCGCUCAACCAGAAAGUCUGUAAUCAUUUUGAGGGUA | 1.65
32 | GUUAACGGACAUAGGCCAUGGAGACUAGGAGCACCAUAUCGCUGCCAGUGAAGAAAUGAACAAAGAAAAUCUGGGCCAGGCAGGCAUCAAAAGAGAUAGUCUUGCGCUCAACCAGAAAGUCUGUAAUCAUUUUAAGGGUA | 1.34
33 | GUUAACGUUCAUAGGCCAUGGAAACUAGGAGCACCAUUUCGCUGCCAGUGAAGAAAUGAUCAAAGAAAAUCAGGGCCAGGCAGGCAUCAAAAGAAAUAGUCUUGCGCUCAACCAGAAAGUCUGUAAUCAUUUUAAGGGUA | 0.46
34 | GUUAACGGACAUAGGCCAUGGGAACUAGGAGCACCAUUUCGCUGCCAGUGAAGAAAUGAACAAAGAUAAACUGGGCCAGGCAGGCAUCAAAAGAAAUAGUCUUGCGCUCAACCAGAAAGUCUGUAAUCAUUUUAGGGGUA | 1.05
35 | GUUAACGGACAUAGGCCAUGGGAACUAGGAGCACCAUUUCGCUGCCAGUGAAGAAAUGAACAAAGAAAAUCUGGGCCAGGCAGGCAUCAAAAGAAAUAGUCUUGCGCUCAGCCAGAAAGACCGUAAUCAUUUUAAGGGCA | 0.01
36 | GUUAACGGACUUAGGCCAUGGAAACUAGGAGCACCAUUUCGCAGCCAGUGAAGAAAUGAACAAAGAAAAUCUGGGCCAGGCAGGCAUCAAAAGAAAUAGUCUUGCGCUCAACCAGAAAGUCUGUAAUCAUUUUACGGGUA | 0.83
37 | GUUAACGAUCAUAGGCCAUGGAAACUAGGAGCACCAUUUCGCUGCCAGUGGAGAAAUGAACAAAGAAAAUCUGGGCCAGGCAGGCAUCAAAAGAAAUAGUCUUGCGCUCAACCAGAAAGUCUGUAAUCACUUUAAGGGUA | 1.24
38 | GUUAACGUUCAUAGGCCAUGGGAACUAGGAGCACCAUUUCGCUGCCAGUGAAGAAAUGAACAAAGAAAAUCUGGGCCAGACAGGCAUCAAGAGAAAUAGUCUUGCGCUCAACCAGAAAGUCUGUAAUCAUUUUAAGGGUA | 0.25
39 | GUUAACGAUCAUAGGCCAUGGAAACUAGGAGCACCAUUUCGCUGCCAGUGAAGAAAUGAACAAAGAAAAUCUGGGCCAGGCAGGCGUCAAAAGAAAUAGUCUUGCGCUCAACCAGAAAGUCUGUUACCAUUUUAAGGGUA | 0.17
40 | GUUAACGCUCAUAGGCCAAGGAAACUAGGAGCACCAUUUCGCUGCCAGUGAAGAAGUGAACAAAGAAAAUCUGGGCCAGGCAGGCAUCAAAAGAAAUAGUCUUGCGCUCAACCAGAAAGUCUGUAAUCAUUUUAAGGGUA | 1.63
41 | GUUAACGAUCAUAGGCCAUGGAAACUAGGAGCACCACUUCGCUGCCAGUGAAGAAAUGAACAAAGAAAAUCUGCGCCCGGCAGGCAUCAAAAGAAAUAGUCUUGCGCUCAACCAGAAAGUCUGUAAUUAUUUUAAGGGUA | 0.16
